Source: the RNAGym collection of RNA variant scans (doi:10.7554/elife.90254)
Read counts are not given, so values of variants with three or more changes are uncertain.

B1: LINE1-mini (parent)
chain: GGCAGAGCUCAACACAGCGUGGCAAAGUGGCUGUGGCUAGACUGCC

Variants of: B1
Assay: self-cleavage, relative activity (ratio to wild type); higher = more cleavage; in vitro, sequencing; the parent is a self-cleaving ribozyme
A6G A12C G17U A26U G33A C45A C46A gave a self-cleavage of 0.03.
For A6G A12C G21U G27U G30A, the self-cleavage was 0.02.
A6G A12C G40A showed a self-cleavage of 0.01.
A6G A12G A14C G21C gave a self-cleavage of 0.04.
Work on A6G A12G C13U A41U yielded a self-cleavage of 0.01.
In the case of A6G A12G C23G U34A, the self-cleavage is reported as 0.02.
With A6G A12G C42U the self-cleavage was 0.03.
For A6G A12U A14U A16U C23U G29U U34A G35U, the self-cleavage was 0.01.
Variant A6G A12U A25G has a self-cleavage of 0.02.
In the case of A6G A12U C31G U38C A39U, the self-cleavage is reported as 0.18.
A6G A14G C31A G35A U38C C42A gave a self-cleavage of 0.01.
Work on A6G A14G G17U G21C G30U C42G G44A yielded a self-cleavage of 0.01.
For A6G A14G G17U G30U G35A G36C A41G, the self-cleavage was 0.05.
Work on A6G A14G G19A G40U yielded a self-cleavage of 0.17.
With A6G A14U G22C G40A the self-cleavage was 0.05.
Variant A6G A16C A26C G27C U43A C46U has a self-cleavage of 0.07.
A6G A16G C18U showed a self-cleavage of 0.03.
For A6G A16G C23U G44A, the self-cleavage was 0.02.
Variant A6G A16G G19A A25G U38C has a self-cleavage of 0.01.
Work on A6G A16G G19C A25U yielded a self-cleavage of 0.02.
Variant A6G A16G G40C C45U has a self-cleavage of 0.01.
A6G A16U A24G A25U gave a self-cleavage of 0.01.
Work on A6G A24C C37A yielded a self-cleavage of 0.06.
Variant A6G A24C U28G U34C G35A G44U has a self-cleavage of 0.02.
Work on A6G A24G G29C G30C yielded a self-cleavage of 0.29.
A6G A24U G44A C45A showed a self-cleavage of 0.03.
In the case of A6G A24U U28A, the self-cleavage is reported as 0.01.
In the case of A6G A25C A26C, the self-cleavage is reported as 0.1.
A6G A25C C42G C45A showed a self-cleavage of 0.02.
For A6G A25C G30U C37A, the self-cleavage was 0.03.
A6G A25G G33U C37U C42U showed a self-cleavage of 0.04.
Variant A6G A25G G44U has a self-cleavage of 0.
In the case of A6G A25G G44U C45G, the self-cleavage is reported as 0.02.
For A6G A25U A39U, the self-cleavage was 0.06.
A6G A26C G29C C37A gave a self-cleavage of 0.
Variant A6G A26C G36A G40A has a self-cleavage of 0.05.
Variant A6G A26G G33U U38G has a self-cleavage of 0.02.
A6G A26U G27A showed a self-cleavage of 0.11.
A6G C8A C10A A16U C45A gave a self-cleavage of 0.01.
A6G C8A C13A G29U showed a self-cleavage of 0.16.
A6G C8A C15A G30A U38G showed a self-cleavage of 0.25.
In the case of A6G C8A C18G C23U C31U C45A, the self-cleavage is reported as 0.08.
A6G C8A G19C showed a self-cleavage of 0.09.
A6G C8A G35A A39G showed a self-cleavage of 0.14.
Variant A6G C8G A41U has a self-cleavage of 0.08.
For A6G C8G G17A C23U G30U C37A, the self-cleavage was 0.11.
Variant A6G C8G G40C has a self-cleavage of 0.06.
For A6G C8G U9G C10A G35C G36A, the self-cleavage was 0.01.
A6G C8U A14U A25C gave a self-cleavage of 0.29.
With A6G C8U A26U G27A C46U the self-cleavage was 0.21.
Work on A6G C8U G19C G21A A39G C45G yielded a self-cleavage of 0.03.
A6G C8U U9C G22C showed a self-cleavage of 0.04.
In the case of A6G C8U U28C A39G, the self-cleavage is reported as 0.02.
For A6G C10A A14C U28G, the self-cleavage was 0.
With A6G C10A A16U A39C C46A the self-cleavage was 0.01.
With A6G C10A A24C U38C C46A the self-cleavage was 0.03.
A6G C10A C23A A24G G40A showed a self-cleavage of 0.01.
For A6G C10A G30A G33U A41U, the self-cleavage was 0.03.
With A6G C10A G44U the self-cleavage was 0.06.
A6G C10A U20G U28C G36U showed a self-cleavage of 0.
With A6G C10A U32C C42G C45A the self-cleavage was 0.01.
A6G C10A U43A C45G gave a self-cleavage of 0.02.
With A6G C10G A12C C23U U38G the self-cleavage was 0.01.
For A6G C10G G22C U38G A39U G44U, the self-cleavage was 0.01.
For A6G C10U A16C G33U, the self-cleavage was 0.03.
For A6G C10U C18G A24U U32G, the self-cleavage was 0.02.
In the case of A6G C10U G22A, the self-cleavage is reported as 0.06.
In the case of A6G C10U G35U, the self-cleavage is reported as 0.05.
A6G C10U G40U gave a self-cleavage of 0.03.
A6G C13A C18G C23U C37G showed a self-cleavage of 0.02.
Work on A6G C13A G17C C42G yielded a self-cleavage of 0.03.
Work on A6G C13G A14C A25G U28C G35C yielded a self-cleavage of 0.
A6G C13G A16C showed a self-cleavage of 0.03.
A6G C13G C18U showed a self-cleavage of 0.05.
With A6G C13G C18U G21A A24U G33A the self-cleavage was 0.05.
With A6G C13U A14G G19A G21C A25U A26C G33A the self-cleavage was 0.03.
A6G C13U A16U G17C C23A G35C G36A C42U showed a self-cleavage of 0.08.
For A6G C13U A16U G21U G27U C31U G36C, the self-cleavage was 0.01.
With A6G C13U C23U the self-cleavage was 0.05.
For A6G C15A C31G G33A, the self-cleavage was 0.01.
For A6G C15A G17U U34G, the self-cleavage was 0.03.
Variant A6G C15U U28A U34C G44U has a self-cleavage of 0.22.
Variant A6G C18G A26U G29C has a self-cleavage of 0.05.
With A6G C18G A39G the self-cleavage was 0.03.
With A6G C18G C23U G40U the self-cleavage was 0.02.
Variant A6G C18U C23A C45A has a self-cleavage of 0.07.
A6G C18U G19C showed a self-cleavage of 0.05.
Variant A6G C18U G33C G36U has a self-cleavage of 0.01.
With A6G C23A A25G the self-cleavage was 0.06.
In the case of A6G C23A A41C, the self-cleavage is reported as 0.33.
Work on A6G C23U G36A C46A yielded a self-cleavage of 1.39.
In the case of A6G C31G U34G, the self-cleavage is reported as 0.01.
A6G C37A U38G showed a self-cleavage of 0.01.
A6G G7A A11U G36U A39U C46G gave a self-cleavage of 0.01.
Variant A6G G7A C8G A24C has a self-cleavage of 0.12.
For A6G G7A C10A G30U, the self-cleavage was 0.01.
Work on A6G G7A C13A A26G G27U yielded a self-cleavage of 0.01.
Work on A6G G7C C8A G19C U20G G36U yielded a self-cleavage of 0.33.
Variant A6G G7C C8G has a self-cleavage of 0.13.
Work on A6G G7C G29A yielded a self-cleavage of 0.02.
For A6G G7C G30U C31U C42U, the self-cleavage was 0.
A6G G7U C15U showed a self-cleavage of 0.06.
With A6G G7U C18A G36A the self-cleavage was 0.07.
With A6G G7U G21A G27U G30A C31A C46G the self-cleavage was 0.13.
With A6G G7U G35A U38C A41C G44U the self-cleavage was 0.
With A6G G7U G40A the self-cleavage was 0.02.
With A6G G7U U9A A24C C42A the self-cleavage was 0.04.
In the case of A6G G7U U9A C10U U32C G44C, the self-cleavage is reported as 0.02.
A6G G17A C46A showed a self-cleavage of 0.02.
A6G G17C G36C A39G U43A gave a self-cleavage of 0.04.
A6G G17U C37A gave a self-cleavage of 0.01.
Variant A6G G17U G27A U32C has a self-cleavage of 0.08.
Work on A6G G17U U43A yielded a self-cleavage of 0.03.
Work on A6G G19A G27U C42G yielded a self-cleavage of 0.03.
In the case of A6G G19C C31U G40U, the self-cleavage is reported as 0.04.
A6G G19U A41U gave a self-cleavage of 0.05.
Variant A6G G19U U34C has a self-cleavage of 0.08.
With A6G G21A A39G C42U the self-cleavage was 0.03.
A6G G21A A41C gave a self-cleavage of 0.22.
Variant A6G G21U G22A has a self-cleavage of 0.04.
A6G G22A A26G U32C gave a self-cleavage of 0.01.
For A6G G22A G33A G44A, the self-cleavage was 0.01.
With A6G G22A G33U the self-cleavage was 0.08.
Work on A6G G22C A41U yielded a self-cleavage of 0.
A6G G22U C23A G35U G40C gave a self-cleavage of 0.
A6G G27A C37U showed a self-cleavage of 0.01.
Work on A6G G27A U28G C42A C46G yielded a self-cleavage of 0.07.
With A6G G27U G44U C45U the self-cleavage was 0.22.
A6G G29A G33U C42G gave a self-cleavage of 0.01.
With A6G G29C U32C U34C the self-cleavage was 0.08.
Variant A6G G29U A41U has a self-cleavage of 0.11.
In the case of A6G G30C U32A G35U G36A A39G, the self-cleavage is reported as 0.01.
Variant A6G G30C U43C has a self-cleavage of 0.
For A6G G30U G35C, the self-cleavage was 0.05.
Work on A6G G33A G35C C45U yielded a self-cleavage of 0.03.
A6G G33C A41C showed a self-cleavage of 0.05.
A6G G35A A39G showed a self-cleavage of 0.08.
For A6G G35U G36A, the self-cleavage was 0.12.
Variant A6G G40U G44C has a self-cleavage of 0.01.
Work on A6G U9A C15G G35A yielded a self-cleavage of 0.18.
Variant A6G U9A G29U U32G has a self-cleavage of 0.24.
A6G U9A G30C C37A showed a self-cleavage of 0.04.
Variant A6G U9A U32C C42G has a self-cleavage of 0.01.
A6G U9C C15U U20C A25U A41U C45A gave a self-cleavage of 0.04.
For A6G U9G A25G G40A, the self-cleavage was 0.03.
Work on A6G U9G A25U G36A C37U yielded a self-cleavage of 0.1.
For A6G U9G C18G, the self-cleavage was 0.04.
With A6G U9G G30U G36C C37G C46A the self-cleavage was 0.1.
A6G U20C C31U U38C gave a self-cleavage of 0.02.
A6G U20G C37G showed a self-cleavage of 0.01.
A6G U28A C37U A41C C46A gave a self-cleavage of 0.04.
For A6G U28A G35U A39U, the self-cleavage was 0.04.
A6G U28C G29C G44A gave a self-cleavage of 0.01.
A6G U28C G36A C45G gave a self-cleavage of 0.26.
Variant A6G U34G G44C C45A has a self-cleavage of 0.01.
For A6G U38G C45A, the self-cleavage was 0.
A6U A11G C18U C31G showed a self-cleavage of 0.01.
In the case of A6U A11G G29C U43C, the self-cleavage is reported as 0.01.
Variant A6U A11U A16U G29A C31G has a self-cleavage of 0.02.
Work on A6U A11U G36A yielded a self-cleavage of 0.01.
A6U A12C G29U U34C gave a self-cleavage of 0.02.
Variant A6U A12G C42A has a self-cleavage of 0.07.
A6U A12G G44U gave a self-cleavage of 0.02.
Variant A6U A12U C37G U38G A41C U43G has a self-cleavage of 0.
For A6U A12U G30A C31U C45U, the self-cleavage was 0.01.
With A6U A14C C31U G33U the self-cleavage was 0.01.
Work on A6U A14G A16C A25C yielded a self-cleavage of 0.11.
